# The whole screen tested about 44,000 compounds, of which about 340 (0.77%) were called active. About 5% were inconclusive and are not listed. Calls follow the shape of the dose curve; as a rule, active = well fitted inhibition curve with a large enough effect; inconclusive = small, poorly fitted or top-dose-only effect; inactive = flat fitted curve, though single readings scatter. The list shows a part of the results.
# Test: Acumen qHTS Assay for Inhibitors of the mTORC1 Signaling Pathway in MEF (Tsc2-/-, p53-/-) Cells: Sytravon;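 also: plate controls were DMSO for no effect and rapamycin for full effect; nearly all actives have a fitted effect of over 50% in size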
# Settings: phospho-rpS6 immunofluorescence/PI, 24 h; series mostly up to 38.3 µM; activity change, negative = inhibition: at the top concentration
# Summary of the method: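 Immunofluorescence of rpS6 phosphorylation in Tsc2-/-, p53-/- MEFs after 24 h compound exposure, normalized to propidium iodide signal. Activity is expressed as % positive cells, thresholded with 7.5 nM rapamycin.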
row,Structure (SMILES),"activity change, negative = inhibition"
1,O=C(NCc1cccc(F)c1)c1ccc(NC(=O)c2nsc3ccccc23)cc1,inactive: 2.77%
2,CC(C)(C)c1ccc(C(=O)Nc2onc3c2CCCC3)cc1,inactive: 1.18%
3,COc1ccc(OC)c(S(=O)(=O)Nc2cccc(-c3ccc(N4CCCCC4)nn3)c2)c1,inactive: -0.777%
4,Cc1ccc(C)c(N2CCN(C(=O)CSCc3ccccc3Cl)CC2)c1,inactive: -9.49%
5,COc1cccc(NC(=O)CC2Nc3cc(C)c(C)cc3NC2=O)c1 (configuration not stated),inactive: -12.4%
6,Cc1cccc(NC(=O)CCS(=O)(=O)c2cc(Br)cc3c2N(C(=O)C2CC2)CC3)c1,inactive: -6.29%
7,Cc1ccc(CNC(=O)CC2Oc3ccc(Cl)cc3NC2=O)cc1 (configuration not stated),inactive: 2.96%
8,CC(C)(C)c1ccc(C(=O)NCC(c2ccc(Cl)cc2)N2CCOCC2)cc1 (configuration not stated),inactive: -6.42%
9,CCOc1ccc(NS(=O)(=O)c2ccc3c4c(cccc24)C(=O)N3)cc1,inactive: -4.13%
10,Cc1ccc(CN(Cc2ccco2)C(=O)COc2ccc(C)c(C)c2)cc1,inactive: -12.2%
11,CCc1ccc(S(=O)(=O)Nc2cccc(-c3ccc(N4CCOCC4)nn3)c2)cc1,inactive: -6.14%
12,CC(=O)c1cccc(NC(=O)CSc2nc3ccccc3nc2Cc2ccc(F)cc2)c1,inactive: 0.408%
13,CC(=O)Nc1ccccc1-c1nc2ccccc2n(CC(=O)Nc2cccc(C(F)(F)F)c2)c1=O,inactive: -15%
14,COc1ccc(/C=C/C(=O)Nc2nc(-c3cccs3)ns2)cc1OC,inactive: -9.36%
15,Cc1ccc(CO)cc1Nc1ncnc2onc(-c3ccc(F)cc3)c12,inactive: 2.88%
16,CCS(=O)(=O)N1CC(=O)N(c2ccc(Cl)cc2)C(C)(C(=O)NC2CCCCC2)C1 (configuration not stated),inactive: -6.66%
17,CCOc1cccc2cc(S(=O)(=O)c3ccccc3F)c(=O)oc12,inactive: 1.53%
18,Cc1ccc(CNC(=O)c2ccc3nc(SCc4ccc(F)cc4)[nH]c3c2)cc1,inactive: 0%
19,CC1=C(c2ccc(C(C)C)cc2)S(=O)(=O)N=C1N1CCC(C(=O)NCCc2ccco2)CC1,inactive: -5.61%
20,COc1cccc(-c2nc(SCC(=O)NC3CCCC3)c(-c3ccc(C)cc3)[nH]2)c1,inactive: -15.3%
21,CCN(CC)C(=O)CSc1nc(-c2ccc(C)cc2)nc2c1Cc1c(CO)cnc(C)c1O2,inactive: -0.561%

row,Structure (SMILES),"activity change, negative = inhibition"
1,COc1ccc(N2CC(NC(=O)c3ccc(S(=O)(=O)N4CCCCC4)cc3)CC2=O)cc1 (configuration not stated),inactive: -3.23%
2,Cc1ccc(C(=O)Nc2c(C)nc3ccccn3c2=O)cc1C,inactive: -27.3%
3,CCc1cccc(NC(=O)C(Cc2ccccc2)n2cccc2)c1 (configuration not stated),inactive: -3.74%
4,CCOc1ccc(CNC(=O)c2ccc3c(c2)nc2n3CCOC2)cc1OC,inactive: -19%
5,CC1=C(C(=O)Nc2ccc(F)cc2F)C2(CCN(C(C)C)CC2)OC1=O,inactive: -0.896%
6,CCc1ccc(NC(=O)CN(c2cc(C)cc(C)c2)S(=O)(=O)c2c(C)[nH]c(=O)[nH]c2=O)cc1,inactive: 0.244%
7,CCC1Oc2ccc(Cl)cc2N(CC(=O)NCCc2ccc(Cl)cc2)C1=O (configuration not stated),inactive: -13.6%
8,CCCN1Cc2cccc(C(=O)Nc3cccc(C(=O)OCC)c3)c2C1=O,inactive: -13.8%
9,CCc1cccc(C)c1NC(=O)Cn1nc(C)c2nn(-c3ccc(Cl)cc3)c(C)c2c1=O,inactive: 0%
10,COc1ccc(/C=C/C(=O)Nc2ccc3nc(N4CCC(C)CC4)cc(C)c3c2)cc1,inactive: -9.92%
11,COCCNc1nc(NCc2cccc(Cl)c2)c2cnn(C)c2n1,inactive: 11.4%
12,COc1ccc2c(c1)cc1c(=O)n(CC(=O)NC3CC3)nc(C)n12,inactive: 0.318%
13,CCN(c1ccccc1)S(=O)(=O)c1c(-c2ccc(C)cc2)csc1C(=O)OC,inactive: -5.42%
14,COc1ccccc1C(=O)Nc1ccc2oc(-c3cccc4c(Br)cccc34)nc2c1,inactive: 1.61%
15,O=[N+]([O-])c1cc(-c2nc(-c3ccccc3)no2)ccc1NC1CCCCC1,inactive: 1.96%
16,O=C(Cc1csc2nc(-c3ccc(F)cc3)cn12)NCc1ccccc1,inactive: -3.78%
17,C=Cc1ccc(Cn2c(C)c(CNCc3ccccc3C)c(C(=O)O)c2C)cc1,inactive: -7.48%
18,COc1ccccc1CNC(=O)CCn1c(=O)c2cccn2c2cccnc21,inactive: 2.77%
19,Cc1ccc(NC(=O)c2ccc3c(O)c(S(=O)(=O)c4ccccc4)c(=O)[nH]c3c2)cc1Cl,inactive: -3.75%
20,O=C(Nc1nnc(S(=O)(=O)N2CCCCC2)s1)c1ccccc1Br,inactive: 6.87%
21,Cc1ccc(-c2nnc(Nc3ccc(C(=O)N(C)C)cc3)c3ccccc23)cc1S(=O)(=O)N(C)C,inactive: 1.54%

row,Structure (SMILES),"activity change, negative = inhibition"
1,CCN(C(=O)CN1C(=O)COc2ccc(S(=O)(=O)N3CCOCC3)cc21)c1ccc(OC)cc1,inactive: -1.65%
2,CC(C)(C)CC(=O)NCC(c1ccc2c(c1)OCO2)N1CCOCC1 (configuration not stated),inactive: -0.0343%
3,O=C(Nc1cccc(F)c1)c1ccc2c(c1)N(Cc1ccccc1)C(=O)c1ccccc1S2(=O)=O,inactive: -0.479%
4,O=C(COc1ccc(Cl)cc1)OCc1cc(=O)n2nc(C3CC3)sc2n1,inactive: -7.84%
5,COc1ccc(C(=O)NCC(c2ccc(N(C)C)cc2)N2CCc3ccccc32)cc1OC (configuration not stated),inactive: 9.06%
6,COC(=O)c1ccccc1NC(=O)C1CCN(C(=O)N2CC(C)Oc3ccccc32)CC1 (configuration not stated),inactive: 3.18%
7,Cc1cccc(NC(c2ccccc2F)c2ccc3ccc(C)nc3c2O)n1 (configuration not stated),inactive: -7.83%
8,COc1ccc(-c2nc3ccccc3s2)cc1NC(=O)c1ccc(F)cc1,inactive: -0.929%
9,Cc1cccc(C(C)C)c1NC(=O)c1ccc2c(c1)CCN2S(C)(=O)=O,inactive: -7.38%
10,Cc1nn2c(=O)cc(COC(=O)c3cccc(NC(=O)c4ccc(F)cc4)c3)nc2s1,inactive: 10.8%
11,Cc1ccc(Cl)cc1NC(=O)Cn1c(=O)n(C(C)C)c(=O)c2oc3ccccc3c21,inactive: 2.33%
12,CCn1c(CN2CCC(C)CC2)nc2cc(NC(=O)c3ccc([N+](=O)[O-])cc3)ccc21,inactive: 2.11%
13,Cc1ccc(-n2nc(-c3ccccc3)c3cnc4cc5c(cc4c32)OCO5)cc1C,inactive: 0.182%
14,O=C(O)CCc1ccc(-c2ccccc2)n1-c1ccc(C(=O)O)cc1,inactive: -0.0177%
15,CC(=O)Nc1cccc(NC(=O)CSc2ccc(-c3sc(-c4ccccc4)nc3C)nn2)c1,inactive: -21.5%
16,CCOc1ccc(S(=O)(=O)N2CCC(c3ccncc3)CC2)cc1,inactive: -13.3%
17,COc1cccc(NC(=O)c2oc3ccc(S(=O)(=O)N4CCCCCC4)cc3c2C)c1,inactive: 3.45%
18,COC(=O)c1ccccc1NC(=O)c1nn(-c2ccc(OC)cc2)c(=O)c2c1c1ccccc1n2C,inactive: -9.55%
19,COc1cccc(NC(=O)C2CCN(S(=O)(=O)c3ccc4[nH]c5c(c4c3)CCCCC5)CC2)c1,inactive: 2.58%
20,CCC(C)NC(=O)c1c(C)oc2nc(C)nc(N3CCOCC3)c12 (configuration not stated),inactive: -9.66%
